# Data from PubChem BioAssay AID488969 (Vanderbilt High Throughput Screening Facility, 2010).
# The full ranking holds about 110,000 compounds; the median of “z-score” is about -0.1, and the highest 2% start at about 2. This is one part of the list. Calls of active or inactive are those of the source.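 The calls were made as follows: active = z-score in the third read window above 3 or below -3; inactive = the rest.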
# Biological target: Metabotropic glutamate receptor 8 (Rattus norvegicus) (UniProt P70579)
# Assay: mGluR8 Gi/Go-coupled signaling modulation – cell-based, rat, thallium flux, HTS, primary screen (AID 488969)
# Settings: HEK293 rat mGluR8, GIRK (G protein-gated inwardly rectifying potassium channel) thallium flux, FluoZin2; at 10 µM; stronger effect = higher value; submaximal glutamate (EC20) added with thallium
# Chain of UniProt P70579 (P70579 whole entry, looked up): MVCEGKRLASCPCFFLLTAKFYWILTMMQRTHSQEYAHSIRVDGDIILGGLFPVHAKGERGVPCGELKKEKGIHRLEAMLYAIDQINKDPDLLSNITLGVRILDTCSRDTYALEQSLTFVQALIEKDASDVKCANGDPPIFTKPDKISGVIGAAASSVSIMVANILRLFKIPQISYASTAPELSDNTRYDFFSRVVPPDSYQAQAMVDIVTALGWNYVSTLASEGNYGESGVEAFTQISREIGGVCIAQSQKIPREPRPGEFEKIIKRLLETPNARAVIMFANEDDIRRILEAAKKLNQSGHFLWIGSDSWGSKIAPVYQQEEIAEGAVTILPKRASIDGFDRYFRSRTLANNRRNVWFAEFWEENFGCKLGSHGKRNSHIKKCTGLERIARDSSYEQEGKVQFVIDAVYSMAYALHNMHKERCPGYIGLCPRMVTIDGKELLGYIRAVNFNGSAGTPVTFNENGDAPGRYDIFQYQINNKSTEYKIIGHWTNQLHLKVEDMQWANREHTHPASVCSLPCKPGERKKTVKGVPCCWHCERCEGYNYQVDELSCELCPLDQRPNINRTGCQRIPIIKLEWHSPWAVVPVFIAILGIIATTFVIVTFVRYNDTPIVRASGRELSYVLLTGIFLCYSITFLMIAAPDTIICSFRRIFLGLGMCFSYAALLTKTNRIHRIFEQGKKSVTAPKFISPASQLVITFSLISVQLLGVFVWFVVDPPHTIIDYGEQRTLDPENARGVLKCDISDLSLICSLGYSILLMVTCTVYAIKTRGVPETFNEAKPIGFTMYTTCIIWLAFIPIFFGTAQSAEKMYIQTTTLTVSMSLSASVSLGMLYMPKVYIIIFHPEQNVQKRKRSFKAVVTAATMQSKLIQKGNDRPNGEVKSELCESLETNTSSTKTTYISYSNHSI
row,SMILES,z-score
1,COc1ccc(OCC(=O)N2CCN(c3cccc(Cl)c3)CC2)cc1,-0.493
2,COc1ccc(C(=O)Nc2cc([N+](=O)[O-])ccc2N2CCN(C)CC2)cc1,-0.157
3,O=C(COC(=O)c1ccc2ccccc2n1)Nc1ncc(C(F)(F)F)cc1Cl,-0.0218
4,O=C(CCN1CCOCC1)Nc1c(-c2ccccc2)c2cc(Br)ccc2[nH]c1=O,0.572
5,CCc1cccc(NC(=O)Cc2ccc(OC)c(OC)c2)c1,-0.327
6,CC(=O)c1cccc(NC(=O)N2CCCC2C(=O)Nc2ccccc2C)c1 (configuration not stated),0.393
7,Cc1ccc(C(=O)N/N=C(/CC(=O)c2cccs2)C(F)(F)F)cc1,active: 7.05
8,C=C(C)Cn1c(N2CCN(CC)CC2)nc2c1c(=O)[nH]c(=O)n2C,-0.119
9,C/C(Cn1cnc([N+](=O)[O-])n1)=N\NC(=O)c1ccc(F)cc1,-0.212
10,Cc1ccc(NS(=O)(=O)c2ccc(Cl)s2)cc1S(=O)(=O)N(C)C,0.393
11,CCOc1cc(C2C(C(=O)OCC(C)C)=C(C)N=C3SCCC(=O)N32)ccc1OC(C)=O (configuration not stated),-0.787
12,O=c1cc(-c2ccco2)oc2ccc(Cl)cc12,-0.578
13,CC(Sc1ccc(Cl)cc1)C(=O)Nc1ccccc1C(=O)N1CCOCC1 (configuration not stated),-0.128
14,CC1(C)CC2CC(C)(CN2S(=O)(=O)c2cccc(N)c2)C1 (configuration not stated),0.33
15,O=C(CN1C(=O)COc2ccc(S(=O)(=O)N3CCCC3)cc21)NC1CCCCCCC1,-0.315
16,O=C(CCCCl)Oc1ccc2cc(-c3ccc4ccccc4n3)c(=O)oc2c1,-0.189
17,CCCSC1=N/C(=C\C=C\c2ccco2)C(=O)S1,-0.777
18,Oc1ccccc1-c1cc(-c2ccccc2)no1,0.0134
19,O=Nc1c(O)n(Cc2c(Cl)cccc2Cl)c2ccccc12,-0.331
20,Cc1cc(COc2ccccc2O)on1,-0.116
21,CC(=O)/C(=N/Nc1cccc(C)c1)N1CCOCC1,-0.158
22,O=[N+]([O-])c1ccc(N2CCN(S(=O)(=O)c3ccc(Cl)cc3)CC2)cc1NCC1CCCO1 (configuration not stated),-0.211

row,SMILES,z-score
1,Cc1cccc(N2CCN(C(=O)C(C)n3nc(C)n4c(cc5occc54)c3=O)CC2)c1C (configuration not stated),0.0787
2,COCC(=O)NCCc1ccc(S(N)(=O)=O)cc1,0.0312
3,CCC(=O)c1cc2c(C)cc(=O)oc2c(C)c1OC(=O)C(C)C,0.0468
4,CCOC(=O)Cn1c(-c2ccccn2)nc2ccccc21,0.901
5,Cc1cc(C)n2[nH]c(=O)c(N=Nc3cccc(C(F)(F)F)c3)c2n1,0.14
6,COc1cccc(NC2CC(=O)N(CCc3ccccc3)C2=O)c1 (configuration not stated),0.0463
7,CCc1c(C)nc2ncnn2c1N1CCC(C(=O)NCc2cccc(OC)c2)CC1,0.0344
8,O=C(Cn1nnc(-c2ccccc2NC(=O)c2cccs2)n1)Nc1ccccc1,-0.11
9,CCOC(=O)C1(C)NC(c2ccc(OC)cc2OC)C2C(=O)N(c3cccc(OC)c3)C(=O)C21 (configuration not stated),-0.142
10,O=C(Nc1ncn[nH]1)c1ccc(Cl)c(S(=O)(=O)Nc2ccc(Cl)cc2)c1,0.47
11,Cc1ccc(S(=O)(=O)Cn2nnnc2C(c2ccccc2)N2CCN(c3ncccn3)CC2)cc1 (configuration not stated),0.533
12,CC(C)(C)c1cc(NC(=O)C2CCCO2)no1 (configuration not stated),-0.542
13,Cc1ccc(-c2nnc3n2N=C(c2ccc(Br)cc2)CS3)cc1,0.401
14,CC(=O)c1c(C)nc(-c2ccc(Cl)cc2)nc1NC(=O)C(C)C,-0.967
15,O=C(Nc1nccs1)c1ccc(Cl)c(S(=O)(=O)N2CCOCC2)c1,0.0713
16,CCS(=O)(=O)N1CCCC(C(=O)NCc2ccc3c(c2)OCO3)C1 (configuration not stated),0.172
17,Cc1cc(C)n2nc(CCc3ccccc3)nc2n1,-0.0448
18,COC(=O)CCN(C(=O)c1cccc(OC(C)=O)c1)c1ccccn1,0.19
19,COc1ccc(N=C2S/C(=C\c3cc(C)n(C)c3C)C(=O)N2CC(C)C)cc1,-0.473
20,CC1=NN(c2ccccc2)C(=O)/C1=C/c1cccs1,-0.364
21,CCn1c(=O)cc(OCC(=O)Nc2ccccc2C#N)c2ccccc21,0.787
22,CCN1CCN(c2nc3sc4c(c3c(=O)n2-c2ccc(OC)cc2)CCCCC4)CC1,-0.199

row,SMILES,z-score
1,Cc1ccccc1NS(=O)(=O)c1cc(S(C)(=O)=O)ccc1Cl,-0.0663
2,COc1ccc(C2CC(C(F)(F)F)n3nc(C(=O)Nc4c(C)n(C)n(-c5ccccc5)c4=O)c(Cl)c3N2)cc1 (configuration not stated),-0.209
3,O=C(NCc1ccc(C(F)(F)F)cc1)C12CN(Cc3ccccc3)CC1C(c1cccc([N+](=O)[O-])c1)=NO2 (configuration not stated),-0.00487
4,COC(=O)Cc1cc(=O)n(-c2nc3ccccc3s2)[nH]1,-0.0486
5,CC(C)c1nc(SCC(=O)c2ccccc2)c2c(=O)n(C)c(=O)n(C)c2n1,-0.239
6,O=C(c1cccc(C(=O)N2CCN(c3ncccn3)CC2)c1)N1CCN(c2ncccn2)CC1,0.184
7,COc1ccc(NC(=O)c2c(OC)cccc2OC)c(OC)c1,-0.249
8,CCN(CC)C(=O)c1ccc(NS(=O)(=O)c2ccccc2)cc1,0.525
9,CCCN1C(=O)c2ccc(C(=O)Nc3cc(C)on3)cc2C1=O,-0.103
10,Cc1cccc(Nc2ccc([N+](=O)[O-])cc2C(=O)O)c1,-0.32
11,CCOC(=O)CC(NC(=O)c1cc2cccc(OC)c2oc1=O)c1cccc([N+](=O)[O-])c1 (configuration not stated),-0.293
12,COc1ccccc1NC(=S)N(CCc1nc2cc(C)c(C)cc2[nH]1)Cc1cccnc1,0.23
13,CC(C)Nc1nnc(Sc2ccc(Cl)cc2[N+](=O)[O-])s1,1.29
14,CCNc1ccc(S(=O)(=O)N(C)C)cc1NCC(=O)Nc1ccc(F)c(Cl)c1,0.204
15,O=C(COC(=O)/C=C/c1ccc2c(c1)OCO2)Nc1ccc(S(=O)(=O)N2CCCC2)cc1,-0.182
16,CSc1nc(C)cc(/C=C\c2ccccc2)c1C#N,-0.0716
17,CCOC(=O)c1nn(-c2ccc(F)cc2)c(-c2ccccc2)c1C(=O)c1ccccc1,-0.126
18,CC(C)c1nnc(NC(=O)CCC(=O)NCc2ccc3c(c2)OCO3)s1,0.746
19,Cc1ccccc1NC(=O)NCCCN1CCN(c2ccccc2)CC1,-0.104
20,C/C(CC(C)C)=N\NC(=O)Nc1ccccc1,1.35
21,C1CCC2(CC1)OCC1(CO2)COC2(CCCCC2)OC1,active: 3.83
22,CC(C)CCNC(=O)C12CN(Cc3ccccc3)CC1C(c1cccc([N+](=O)[O-])c1)=NO2 (configuration not stated),-0.257

row,SMILES,z-score
1,CC(=O)Oc1ccc2c(c1)OC(c1ccccc1)CC21CC(C)(C)NC(=S)N1 (configuration not stated),-0.31
2,COc1cccc(NC(=O)C(Sc2nc3ccccc3c(=O)n2CC(C)C)c2ccccc2)c1 (configuration not stated),2.63
3,CC(C)NS(=O)(=O)c1ccc(OCC(=O)Nc2ccc3c(c2)OCO3)c(Cl)c1,active: 3.09
4,Cc1nc(CS(=O)(=O)c2ccccc2)cc(Sc2ccc(Cl)cc2Cl)n1,-0.44
5,O=C(Nc1nc(-c2ccc(Cl)s2)cs1)c1ccncc1,0.0724
6,CCOC(=O)C1Sc2[nH]c(=O)sc2C(c2ccc(Cl)cc2)C1C(=O)OCC (configuration not stated),-0.162
7,CSCCC(NS(=O)(=O)c1ccc(Cl)cc1)C(=O)OCC(=O)N1CCOCC1 (configuration not stated),0.146
8,O=C(NC(=S)Nc1cccc(Cl)c1N1CCCCC1)c1ccc2c(c1)OCCO2,0.413
9,CCCCCc1nnc(NC(=O)Cn2cnc3ccccc3c2=O)s1,-0.129
10,CCCCCOC(=O)C1=C(C)Nc2ncnn2C1c1cccs1 (configuration not stated),-1.21
11,Cc1ccc(S(=O)(=O)c2cc3cc(Br)ccc3oc2=O)cc1,0.115
12,O=C(O)CSc1nnc(Cn2cnc3ccccc32)n1CCc1ccccc1,0.335
13,Cc1ccc2nc(NC(=O)c3ccc(S(=O)(=O)N4CCCc5ccccc54)cc3)sc2c1,-0.487
14,CCOC(=O)CCc1c(C)nc2ncnn2c1C,0.0118
15,CC(=O)OCn1nnc2ccccc2c1=O,-0.386
16,c1cnc(Nc2nc(-c3ccc4ccccc4c3)cs2)nc1,-0.78
17,CC(CCc1ccccc1)NC(=O)C(=O)Nc1ccccc1 (configuration not stated),-0.109
18,CC(=O)c1ccc(OCC(O)CN2CC(C)OC(C)C2)cc1 (configuration not stated),-0.391
19,COCC(C)NCc1cccc(OC)c1OC (configuration not stated),0.763
20,O=C1CN(C(=O)COC(=O)CCC(=O)c2ccc3c(c2)OCCO3)c2ccccc2N1,-0.323
21,CCOC(=O)C(NC(=O)c1ccccc1)=C1C=C(C)OC(C)=C1,-0.135
22,O=C(CCCSc1nc2ccccc2s1)NC1=NCCS1,-0.337

row,SMILES,z-score
1,CC(C)C(=O)NCCc1nc2ccccc2n1C,0.0935
2,O=C(O)c1cccc(CSc2nnc(-c3ccco3)o2)c1,-0.112
3,Cc1cc(C)nc(/N=C(\N)Nc2cc([N+](=O)[O-])ccc2C)n1,-0.704
4,O=C(NCc1ccco1)C(c1ccccc1)N(C(=O)Cc1cccs1)c1ccccc1F (configuration not stated),-0.964
5,COc1cccc(-n2c(SCC(=O)N3CCCC3)nc3c([nH]c4ccccc43)c2=O)c1,-0.189
6,COc1cccc(/C=N/NC(=O)CCc2ccccc2)c1,-0.247
7,CCC(C)C(NC(=O)C1CCC(C)CC1)C(=O)NCc1cccnc1 (configuration not stated),0.171
8,CCN1CCN(CCCNC(=O)C2c3ccccc3C(=O)N(C)C2c2ccc(OC)cc2)CC1 (configuration not stated),-0.204
9,CC(=O)Nc1ccc(-c2cc(-c3ccc(NC(C)=O)cc3)nc(-c3ccccc3)n2)cc1,-0.104
10,Cn1c(=O)c2c(n(C)c1=O)=NC1(CCCCC1)N=2,0.287
11,Cn1c(/C=N/c2nc3ccccc3[nH]2)nc2ccccc21,-0.377
12,O=C(Cc1ccccc1)NN1C(=O)C2C3C=CC(C3)C2C1=O (configuration not stated),-0.0994
13,COC(=O)c1cn(NC(=O)c2cccnc2)c(=O)c2ccccc12,0.426
14,Cc1ccc(-c2csc(NC(=O)C3=COCCO3)n2)cc1,-0.193
15,Cc1ccc(C2c3c(oc4ccc(Cl)cc4c3=O)C(=O)N2CCCN2CCOCC2)o1 (configuration not stated),active: 3.95
16,CCOC(=O)C1=C(c2ccccc2)NC(SCC(=O)NC2CCCCC2)=C(C#N)C1c1ccco1 (configuration not stated),-0.181
17,Cn1c(=O)c2c(nc(CN3CCOCC3)n2Cc2ccccc2)n(C)c1=O,0.252
18,COc1ccc(NC(=O)c2ccc(CNc3c(NC4CCCCC4)c(=O)c3=O)cc2)cc1OC,-0.0252
19,CNC(=O)COc1ccc(C=O)cc1OC,-0.17
